Reference: the supplement of paper PMC11417369
Some of the results follow.

system: PfAP2-HC AP2 domain (GST-tagged); assay: gcPBM binding intensity (ln(normalized median fluorescence intensity)); higher = stronger DNA binding
Outline: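 DNA-binding domains from P. falciparum, fused to GST and produced in E. coli, were put on an Agilent 4 × 180k double-stranded probe array for 1 h in 1× PBS holding 1% milk, 0.2 mg/ml BSA, 0.5% salmon testes DNA and 0.03% Triton X-100. Probes were primer-extended, 36 bp long and drawn from intergenic genomic regions, with negative controls included. After Alexa488 anti-GST antibody detection and a 488 nm scan, binding intensity was set as the highest Masliner-normalised natural-log median intensity across replicate spots of either probe orientation.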

Row | Sequence | gcPBM binding intensity (ln)
1 | AATTGAGTATCGTGAGTGCAAAACGTGGTTCAAAGA | 9.74
2 | TAAAATAAAATAAAATGTACTTTCCTTTTGATAATA [XGTACX_site6288] | 9.36
3 | TATATTAAAAAAAAATGTACACATATATATATATAT [XGTACX_site4524] | 9.7
4 | TATATGTTTGAATATACACACAACATATATATATAT [CACACA_site4066] | 9.81
5 | ATATTATTAATTTGTTGTACAGTTCTTTATTTATAG [XGTACX_site7932] | 9.69
6 | CCAGGAAAAATTTATTGTACATATATTTTTATGCTC [XGTACX_site7154] | 9.53
7 | TATTTTTGGTTATGTGTGCACTATGAACAACAAAAT | 9.73
8 | TATATCTCTTTATTCACACATACGTTTTAAAATAAT [CACACA_site5542] | 9.71
9 | TAATAAAACATATATACACACATTAGATATACATAT [CACACA_site6897] | 9.91
10 | TTCCCAACATGATATTGTACATTTAATTATAATTAA [XGTACX_site7029] | 9.69
11 | TATAAATAAAGACACACACACACACCGTATAATTAC [CACACA_site7829] | 10.9
12 | GTGCATAAATCATACACACACACATATATATATATA [CACACA_site2423] | 10.3
13 | ATAAAAATAAAAAAAACACACATACCTTATTTTTGT [CACACA_site5452] | 10.1
14 | GAAAGAAAATATTAAGTGCATATTTTAATGATACAA [GTGCAC_site9712] | 9.77
15 | ATTTTCCATATATTTTGTACATATGTATATTTTCCC [XGTACX_site7795] | 9.83
16 | AAATATAAATGGTAATACACATACACACACACATAC [XGTACX_negctrl_site459] | 10.5
17 | AATCAAAATAAATTAACACACAATTTTAATATTGTT [CACACA_site10] | 9.63
18 | TATAAAAAATTATGTTGTACGTAATATAAAATTTGT [XGTACX_site7122] | 9.62
19 | TATTTTTAACAGTGCACACATAACTTAATTATATGT [CACACA_site2194] | 9.93
20 | AGATATTTTTCTTAAGTACACACTAATTAGAAACTA [CACACA_site7897] | 9.52
21 | TTTTTATTTTAAAAGAATAATTATCTAATATCTATA [CACACA_negctrl_site371] | 9.46
22 | TCGAACGTATCATGTGTACACACAAATTGTTTTTTT [CACACA_site8623] | 10

Row | Sequence | gcPBM binding intensity (ln)
23 | GTATAAAAGTAACTAGTGCATTACATATGAATAAAA | 9.84
24 | CCTTGCCCCAGGAGTTCACACACATAATAGATTGTC [CACACA_site8138] | 9.98
25 | AAAAGAAGAAACAAAACACACACAGTCTTCTTTTCT [CACACA_site9015] | 10.2
26 | TTTATGAGGTTACTATGTACGCAAATTATGTAATAA [XGTACX_site325] | 9.44
27 | ATTTGTGTTATTCGAAGTACGGATCATTTGAAATAA [XGTACX_site2510] | 9.49
28 | TCAAATTATTAAAATACACACATATTATATATATAT [CACACA_site2530] | 9.82
29 | AGCAATTTGGGGTGTACACACACCTTATTTAAATTA [CACACA_site1157] | 9.79
30 | TTACCTCTTTGAAATATACACACTAAACATATCAAC [CACACA_site2455] | 9.68
31 | GACACCTGCATGAAAGTGCAAAATAGAAAAGGAACA [GTGCAC_site9593] | 9.65
32 | AAATACCTTATATATACACACTATGTTTTTCTTTTT [CACACA_site4792] | 9.97
33 | AACACGCACAGACACACACACAAAAATGATTAAAAA [CACACA_site7195] | 10.3
34 | AAGGAATAATAATAAATGTAAAGAAAAGCATACTGA [CACACA_negctrl_site36] | 9.76
35 | TGTGAAAATTATGGGGCATGCAATACTTTAAAAATA [TGCATGCA_site653] | 9.68
36 | CAAATGTAGAAAATGTGTACATAAAAAAAAAAAAAA [XGTACX_site8276] | 9.7
37 | AGTCAATTTTGTGTGTCAACATTTATATAAAGAATG [TGCATGCA_negctrl_site400] | 9.71
38 | TTTTGGCTGATCAGATTTAACAAAAAAAAAAAAAAA [CACACA_negctrl_site671] | 8.93
39 | CCTTCAATTTACATAACACACATTTAACCATAATAA [CACACA_site2394] | 9.65
40 | CAAATATATATTTTCTGTACAAATACAATTAATACT [XGTACX_site2694] | 9.54
41 | TTTAGCCAATTTTTAAAGTTTAAAAAAGAAAAAAGA [CACACA_negctrl_site118] | 9.15
42 | TATTAAAAATACATATGTACTCATAGCATAAAACAT [XGTACX_site8686] | 9.69
43 | ATATATATATTTGTGTGTACATATTAATTTGTATGA [XGTACX_site4047] | 9.86
44 | AACGCGAACAATTTATAGATAACTTTTAATTATTAT [GTGCAC_negctrl_site179] | 9.55

Row | Sequence | gcPBM binding intensity (ln)
45 | AATATATATATAGGATGTACACATAATTCAAATACA [XGTACX_site6368] | 9.92
46 | ATTTAATACAAATACACACACAAATATATACATATA [CACACA_site3747] | 10.4
47 | TATATATATATAAACTGTACTATTTTATGTTAAAAG [XGTACX_site3630] | 9.62
48 | ATGGTATATCCAAATAAACACACGTAAATACATAAA [CACACA_site1682] | 9.84
49 | ATACATTTTTGTAAAAGTACATATACATGCCCCCTT [XGTACX_site1367] | 9.72
50 | TTCCAAAATTGCATTTGTACCCAAAAAATGTATACG [XGTACX_site7680] | 9.46
51 | GTAAGTTTGAATACACGTACAAATTTATTAAAGTCC [XGTACX_site6722] | 9.72
52 | AGATATTAAAACGTTACACACATTTATATATCTTCT [CACACA_site908] | 9.84
53 | ATCAGTCGGCAGGACAGTACACAGTAGCCAGGAAAT [XGTACX_site2003] | 9.68
54 | GCTTTTTATTTTTACCGTACATTATATATGTATATA [XGTACX_site808] | 9.94
55 | ATATTATTAATTTATAGTACTCATTTTTTTTTTTTT [XGTACX_site3536] | 9.61
56 | TTTCTAGTTACAAGAGTGCATAATATATAAAAATAA [GTGCAC_site9874] | 9.48
57 | TATAAATACAATTCACAAGAGATCATGTATCAAACC [CACACA_negctrl_site1219] | 9.71
58 | TATATATATATATATACACACATTTTTAATGATAAA [CACACA_site2695] | 9.62
59 | ATATAATAAATATGTTGTACTATAAAAAATAGCCAT [XGTACX_site4710] | 9.66
60 | TTTATAATTTATATCACACATATATCTGTAATAAAT [CACACA_site5048] | 9.6
61 | ATCTCTGTAAAGATCACACATATATTTTTGTTATAT [CACACA_site5094] | 9.78
62 | TATATATTATATATATGTACATATTGTTGTGTATAT [XGTACX_site767] | 9.76
63 | CATATATGTTATATTTAACACACATATAAGGTACAT [CACACA_site8105] | 9.74
64 | CAGCTCTTAAAAATTACACACATATACACATATATA [CACACA_site9073] | 9.83
65 | TTATTACACACATATGTGCACATATAAAAGTACACG [GTGCAC_site9581] | 9.76
66 | TTATATTTTCAGAATAGTACACATATATACATATAT [XGTACX_site2519] | 9.86

Row | Sequence | gcPBM binding intensity (ln)
67 | AAAAATTCTTGGCGCACACACTTTAAAAATTAAAAA [CACACA_site4498] | 9.81
68 | GATCATTTAAAATAAGTAATATTTTTTTTACTTTTG [TGCATGCA_negctrl_site602] | 9.46
69 | TTATAAAAGAAAAAAAAAAAAAAAAAAAAAAAAAAA [CACACA_negctrl_site1006] | 8.67
70 | ACTAATTACTATAAAACACACATATATATATATATA [CACACA_site2591] | 9.87
71 | TTAGTCGAATGATGTACACACATACAAAACATTTAT [CACACA_site6076] | 9.93
72 | AGAAAATATTTTGGTTGTACAGGCGATTTATATGTT [XGTACX_site7253] | 9.73
73 | AAAAAAAAAAAAAAAAAAAAAAAAAAAAGAAAAAAG [GTGCAC_negctrl_site583] | 8.98
74 | CGTGGGAGCAGACACACACACACACGCATATTTATA [CACACA_site6290] | 10.3
75 | ATGGACAAAAAATATATACACACGAGGAAACCAACA [CACACA_site3726] | 10.2
76 | TTTTGTTTTTACGAATACTTTTTTAATTTTATTTAT [TGCATGCA_negctrl_site395] | 9.55
77 | CATGCATACTACATCTGTACACATACATTATATTTA [XGTACX_site2495] | 9.9
78 | AGCATTTTAAAAGAAAAAAAAAAAAAAAAAAAAATA [GTGCAC_negctrl_site723] | 9.17
79 | ATCTATGTTCCTTTTACACACATAATCTTTTTTTTA [CACACA_site5468] | 9.98
80 | ATATATATATATTATACACACAAAAATATTTTGTAT [CACACA_site266] | 9.77
81 | ATAACATTCTATGTTGCACACAAAGAGAAAAATTTA [CACACA_site9322] | 9.79
82 | ACGCAATATTAACAAGTGCATTATAACACATAACAT | 9.63
83 | GTAAATTATATAACAAATAAAAATGTACATATATAT [CACACA_negctrl_site408] | 9.81
84 | TATACTTTATATATTTTGTATATATATTTTTTTTAT [TGCATGCA_negctrl_site530] | 9.7
85 | TCTTGTTATTTAAATGCATGTTGATTTTAAAAAATT [TGCATGCA_site840] | 9.53
86 | AATAAAAAGTAATAATAACGTATAATTTATTATACT [TGCATGCA_negctrl_site414] | 9.57
87 | ATATATATAGATTGTACACACATTTATGCATATATA [CACACA_site3222] | 9.89
88 | TTTTTTTTTAGAAAAACATGCATGTCCTAAAAATAA [TGCATGCA_site684] | 9.25
